# Measurements published in PubChem BioAssay AID2060898 (Molecular Pharmacology Branch, DTP, NCI, 2025).
# The source holds more than one record for some entries. Only these are listed. The source may hold further records. Results that share an entry are repeats (runs, samples, wells, individuals or studies). Dates in brackets are months of testing.
# System: 616215-338-R-J1-PDC complex spheroid viability
# Experiment: Anticancer human tumor 616215-338-R-J1-PDC patient-derived colon adenocarcinoma cell line growth inhibition [RAS]
# Details: for IC50: compound alone; for viability, T/C: stronger effect = lower value
# Description: RAS pathway inhibitors in Combinations in Complex Spheroids
# A high-throughput screen of multi-cell type tumor spheroids was designed to identify active combinations of RAS pathway inhibitors and targeted small molecules. Complex spheroids include a stromal component modeled by human endothelial cells (HUVEC) and fibroblasts modeled by human mesenchymal stem cells (MSCs). The concentration ranges selected for each drug and investigational agent were based upon clinically achievable concentrations if the clinical Cmax of the agent was known.
# Compounds. The drugs and investigational agents: abemaciclib (NSC768073), cobimetinib (NSC768068), divarasib (GDC6063, NSC841802), docetaxel (NSC628503), GDC-1971 (RLY-1971, NSC841576), gemcitabine (NSC613327), inavolisib (NSC800729), ipatasertib (NSC767898), KB-0742 (NSC834161), MRTX-1133 (NSC836407), osimertinib (NSC779217), RMC-4630 (NSC839698), RMC-6236 (NSC851965), RMC-6291 (NSC852671), Ro-3306 (NSC812927), sapanisertib (NSC764658), SN-38 (NSC673596), staurosporine (NSC755774), SY5609 (NSC837396), and tovorafenib (DAY101, NSC766906), were obtained from the National Cancer Institute (NCI) Developmental Therapeutics Program Chemical Repository. The FDA-approved anticancer drug set is available from the NCI Developmental Therapeutics Program. […] The stock solutions were prepared in dimethyl sulfoxide (DMSO, Sigma-Aldrich, St. Louis, MO, cat. D2650) at 800-fold the tested concentration and stored at -70 degrees C prior to their use. All drugs and investigational agents were tested over a range starting from a high concentration at or near the clinical Cmax and decreasing in half-log increments. If the clinical Cmax for an agent had not been determined, the highest concentration tested was 10 microM.
# Cell Culture. All cells were maintained in an incubator at 37 degrees C and 5% CO2 with 95% humidity. The PDC lines were cultured according to standard operating procedures established by the NCI PDMR. All PDCs were thawed and cultured in Matrigel-coated flasks prepared with a working solution of 1X Ham's F-12 nutrient mix, without supplementation (Invitrogen, Waltham, MA, cat. 11765054), 100 U/mL penicillin-streptomycin (Invitrogen, cat. 15140122), and 2.5% Matrigel (Corning Inc., Corning, NY, cat. 354248) for the first three passages. The 362531-283-R-J2-PDC and 782815-120-R-J1-PDC lines were cultured in 6C/Colon 1B media, which includes advanced DMEM/F-12 (Thermo Fisher Scientific, cat. 12634028), 10 mM HEPES (Thermo Fisher Scientific, cat. 15630080), 1X GlutaMAX supplement (Thermo Fisher Scientific, cat. 35050061), 0.1 mg/mL primocin (InvivoGen, San Diego, CA, cat. ant-pm-2), 10% defined fetal bovine serum, heat inactivated (HyClone Laboratories Inc., Logan, UT, cat. SH30070.03HI), 50% L-WRN conditioned media (ATCC, cat. CRL-3276), 1.25 mM N-Acetyl-L-cysteine (Sigma-Aldrich, cat. A9165), 10 mM nicotinamide (Sigma-Aldrich, cat. N0636), 1X B-27 supplement (Thermo Fisher Scientific, cat. 17504044), 1X N-2 supplement (Thermo Fisher Scientific, cat. 17502048), 50 ng/mL human EGF (Thermo Fisher Scientific, cat. PHG0311), and 10 microM Y-27632 dihydrochloride (Tocris Bioscience, cat. 1254). The K12877-001-R-J1-PDC line was cultured in 6I media, which includes all 6C/Colon 1B media plus 10 ng/mL human FGF-10 (PeproTech, cat. 100-26), 1 ng/mL human FGF-2 (PeproTech, cat. 100-18B), 1 µM prostaglandin E2 (Tocris Bioscience, cat. 2296), […] hydrocortisone (Sigma-Aldrich, cat. H4001), and […] bovine insulin (Sigma-Aldrich, cat. I6634). The K86415-001-R-J1-PDC line was cultured in 6D media, which includes all 6C/Colon 1B media components minus the L-WRN conditioned media. The 485176-168-R4-J1-PDC was cultured in PANC media, which includes all 6C/Colon 1B media plus 100 ng/mL human FGF-10 (PeproTech, cat. 100-26), 500 nM SB-431542 (Selleckchem, cat. S1067), and 10 nM gastrin (Tocris Bioscience, cat. 3006). […]
# 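Further: spheroids exposed to agents for seven days before viability readout.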
# 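Wherever viability, T/C is given: 100% = DMSO vehicle control viability.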
smiles,measurement,setting,value
CC(C)NCC(C(=O)N1CCN(c2ncnc3c2C(C)CC3O)CC1)c1ccc(Cl)cc1 (centres undefined),IC50,,"9.41 µM, 9.03 µM [2024-05] and > 10 µM, 10 µM [2024-06]"
NC1c2ccccc2OC12CCN(c1cnc3c(N4CCCc5ncccc54)n[nH]c3n1)CC2 (centres undefined),"viability, T/C",compound alone 0.1 µM,"95%, 82.9% [2024-05] and 109%, 104% [2024-06]"
same,"viability, T/C",compound alone 3.16 µM,"47.4%, 65.4% [2024-05] and 79.9%, 75.1% [2024-06]"
C[C@@H](NC(=O)c1ncnc(N)c1Cl)c1ncc(C(=O)Nc2cc(C(F)(F)F)c(Cl)cn2)s1,"viability, T/C",compound alone 3.16 µM,"98.9%, 102% [2024-05] and 82.3%, 112% [2024-06]"
same,"viability, T/C",compound alone 10 µM,"71.7%, 60.6% [2024-05] and 46.2%, 56.3% [2024-06]"
CCN1CCN(Cc2ccc(Nc3ncc(F)c(-c4cc(F)c5nc(C)n(C(C)C)c5c4)n3)nc2)CC1,"viability, T/C",compound alone 0.00316 µM,"110%, 88.3% [2024-05] and 111%, 118% [2024-06]"
same,"viability, T/C",compound alone 0.316 µM,"138%, 143% [2024-05] and 125%, 151% [2024-06]"
CCc1c2c(nc3ccc(O)cc13)-c1cc3c(c(=O)n1C2)COC(=O)[C@]3(O)CC,IC50,,"13.7 nM, 21.9 nM [2024-05] and 7.25 nM, 13.3 nM [2024-06]"
same,"viability, T/C",compound alone 0.00949 µM,"54.7%, 76.4% [2024-05] and 33.7%, 57% [2024-06]"
